Data published in PubChem BioAssay AID624172 (National Center for Advancing Translational Sciences (NCATS), 2012).
Screen size: about 380,000 compounds; about 25 (0.007%) were called active. Inconclusive results, whose numbers are uncertain, are shown with a selection of clear calls. Calls come from the whole dose curve; as a rule, active = well fitted activation curve with a large enough effect; inconclusive = small, poorly fitted or top-dose-only effect; inactive = no such curve, though single readings can be large or run the other way. Potencies of inconclusive entries are left out as doubtful fits.

target: Glucagon-like peptide 1 receptor (Homo sapiens) (UniProt P43220); assay: qHTS of GLP-1 Receptor Agonists; conditions: HEK293 GLP-1R CRE-luciferase, luminescence, 4-6 h, cells express a hypersensitive GLP-1R form; activation: at 45.6 µM (top of the series) unless noted; for activation: % of control where 0% means no effect
Potency is the fitted concentration of half-maximal effect; tags give direction and shape of the fitted curve.

Chain of UniProt P43220 (P43220 whole entry, looked up): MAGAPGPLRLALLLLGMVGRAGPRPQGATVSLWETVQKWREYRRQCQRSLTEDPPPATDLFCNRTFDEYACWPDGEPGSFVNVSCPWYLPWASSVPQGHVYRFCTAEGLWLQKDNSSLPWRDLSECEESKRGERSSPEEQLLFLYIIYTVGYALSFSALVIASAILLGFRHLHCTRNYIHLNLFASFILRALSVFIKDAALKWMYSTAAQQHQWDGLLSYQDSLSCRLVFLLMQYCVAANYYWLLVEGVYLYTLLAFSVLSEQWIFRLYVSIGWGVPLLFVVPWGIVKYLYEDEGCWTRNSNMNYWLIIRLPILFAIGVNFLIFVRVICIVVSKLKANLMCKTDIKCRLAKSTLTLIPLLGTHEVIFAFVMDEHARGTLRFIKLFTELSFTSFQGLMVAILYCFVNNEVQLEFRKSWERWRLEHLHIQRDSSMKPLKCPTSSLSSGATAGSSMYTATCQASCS

| Structure (SMILES) | Potency | activation |
| --- | --- | --- |
| CCOc1ncccc1C(=O)OCc1ccccc1 | inconclusive [activator, single point] | – |
| CC(CCc1ccccc1)NC(=S)NC(=O)c1ccco1 (centres undefined) | – | inactive: 14.9% |
| CCOc1cc(/C=C2\SC(N3CCCCC3)=NC2=O)ccc1O | inconclusive [activator, partial curve, poor fit] | – |
| O=C(N/N=C/c1ccc2c(c1)OCO2)c1ccc2c(c1)OCCO2 | – | inactive: 10.7% |
| CC1=NN(C(N)=S)C(=O)C1N=Nc1ccccc1O (centres undefined) | – | inactive: -1.69% |
| C[C@@H](NCCc1ccc(O)cc1)[C@@H](O)c1ccc(O)cc1 | – | inconclusive: 46.4% [activator] |
| Cc1cc(C)c2c(N)c(C(=O)NCC3CCCCC3)sc2n1 | inconclusive [activator, partial curve, poor fit] | – |
| O=C(NC(=S)Nc1cccc2cccnc12)c1ccccc1 | – | inactive: -1.07% |
| Cc1noc(C)c1-c1ccc(C(=O)NCCc2ccccc2)c2occc12 | inconclusive [activator, single point] | – |
| O=C(NC(=S)Nc1cc(C(F)(F)F)ccc1N1CCOCC1)c1ccco1 | – | inactive: 31.9% |
| COc1ccc(OC)c(S(=O)(=O)Nc2ccc(-c3ccc4nnc(C)n4n3)cc2)c1 | inconclusive [activator, full curve] | – |
| C=CCn1c(SCC(=O)N2CCOCC2)nc2scc(-c3ccco3)c2c1=O | inconclusive [activator, partial curve] | – |
| COc1ccc(C(C#N)=Cc2cccc(OC)c2OC)cc1 | inconclusive [activator, partial curve, poor fit] | – |
| Cc1ccc(CN(C)CC(=O)Nc2ccc3c(c2)CCC3)cc1 | inconclusive [activator, partial curve, poor fit] | – |
| CCc1cc(=O)oc2c3c(cc(OCC(=O)Nc4cccnc4)c12)OC(C)(C)CC3 | inconclusive [activator, partial curve] | – |
| CN1CCN(c2ccc(S(=O)(=O)N3CCCCC3)cc2NC(=O)/C=C/c2ccc(Cl)c([N+](=O)[O-])c2)CC1 | – | inactive: -4.79% |
| COc1ccc(C(CC(=O)N2CCCC2)c2c(OC)cc(OC)c3c(-c4ccccc4)cc(=O)oc23)cc1 (centres undefined) | inconclusive [activator, single point] | – |
| COc1ccc(CC(=O)O/N=C(\N)c2cccc([N+](=O)[O-])c2)cc1 | inconclusive [activator, single point] | – |
| COc1ccccc1-c1sc2cc3c(cc2c1-c1ccc(OCCN2CCCCC2)cc1)OCO3 | – | inactive: 10.2% |
| CC(C)CCNC(=O)NC(=O)COC(=O)C1CCN(S(=O)(=O)c2ccccc2F)CC1 | inconclusive [activator, single point] | – |
| c1ccc(-c2cc(-c3nnc4n3N=C(c3ccc5ccccc5c3)CS4)[nH]n2)cc1 | inconclusive [activator, single point] | – |
| Cc1cccc(OCCNc2cc(N3CCOCC3)ccc2[N+](=O)[O-])c1 | inconclusive [activator, partial curve, poor fit] | – |
| COc1ccc(OC)c(S(=O)(=O)Nc2cc3c4c(c2)CCN4C(=O)CC3)c1 | inconclusive [activator, single point] | – |

| Structure (SMILES) | Potency | activation |
| --- | --- | --- |
| CCc1ccc(CNc2ncnc3onc(-c4ccc(Cl)cc4)c23)cc1 | – | inactive: 0.619% |
| CC(C)NS(=O)(=O)c1ccc(NC(=O)C(C)Oc2ccc(C(=O)c3ccccc3)cc2)cc1 (centres undefined) | – | inactive: -5.01% |
| Cc1nc2cc(F)ccc2n1C1CCN(C(=O)c2ccc(F)cc2F)CC1 | inconclusive [activator, partial curve, poor fit] | – |
| Cc1c(OCC(=O)NCc2ccccn2)ccc2c(-c3ccccc3)cc(=O)oc12 | inconclusive [activator, single point] | – |
| O=C(Nc1nnc(SCc2c(Cl)cccc2Cl)s1)C1CCCO1 (centres undefined) | inconclusive [activator, partial curve] | – |
| COc1ccc(S(=O)(=O)N2CCC[C@H]2C(=O)N2CCC[C@H]2C(=O)NCc2ccccn2)cc1C | inconclusive [activator, single point] | – |
| COc1cc(Cl)c(C)cc1NC(=O)CSc1ccccc1 | inconclusive [activator, partial curve, poor fit] | – |
| CCCCn1cnc2c(SCc3ccccc3F)nc(N)nc21 | inconclusive [activator, partial curve, poor fit] | – |
| Fc1ccc(CN2CCC(Cc3ccccc3)CC2)cc1F | – | inactive: -6.18% |
| N#CC1=C(C=Nc2ccccc2O)CCC1 | – | inactive: -15% |
| N=c1nc(N)nc2n1NC(c1ccc(F)cc1)=CS2 | inconclusive [activator, partial curve, poor fit] | – |
| COC(=O)c1ccc(OCC2c3cc(OC)c(OC)cc3CCN2C(=O)C2CC2)cc1 (centres undefined) | inconclusive [activator, partial curve, poor fit] | – |
| Cc1ccc(NC(=O)NC2(C(=O)NCc3ccccc3)CCCCC2)cc1 | – | inactive: 0.583% |
| CC(=O)c1cccc(S(=O)(=O)N(CCCO)Cc2cc3ccc(C)cc3[nH]c2=O)c1 | inconclusive [activator, partial curve, poor fit] | – |
| C[C@]12CC[C@@H]3c4ccc(OC(=O)c5ccccc5)cc4CC[C@H]3[C@@H]1CC[C@@H]2O | inconclusive [activator, full curve, poor fit] | – |
| Cc1nc(SC(C)C(=O)c2c(N)n(C)c(=O)n(C)c2=O)c2c(C)c(C)sc2n1 (centres undefined) | inconclusive [activator, partial curve, poor fit] | – |
| CN(C)S(=O)(=O)c1cccc(C(=O)Nc2ccccc2N2CCCCC2)c1 | inconclusive [activator, partial curve, poor fit] | – |
| O=c1cc(-c2ccccc2F)oc2ccccc12 | inconclusive [activator, partial curve, poor fit] | – |
| O=C(NC(=S)Nc1ccccn1)c1ccccc1 | – | inactive: -7.23% |
| Cn1ncc2c(Nc3ccc(O)cc3)nc(Cl)nc21 | inconclusive [activator, partial curve, poor fit] | – |
| Cc1cccc(N2CCN(C(=O)c3cccc(S(=O)(=O)N4CCOCC4)c3)CC2)c1C | – | inactive: -3.54% |
| CCCc1nc2ccc(NC(C)=O)cc2c(=O)n1Cc1ccc(Cl)cc1 | inconclusive [activator, partial curve, poor fit] | – |
| CCn1c(=N)n(CC(=O)c2cccc([N+](=O)[O-])c2)c2ccccc21 | inconclusive [activator, partial curve, poor fit] | – |

| Structure (SMILES) | Potency | activation |
| --- | --- | --- |
| COc1cccc(-c2nnc(NC(=O)CCS(=O)(=O)c3ccc(C)cc3)o2)c1 | – | inactive: -5.54% |
| COc1ccc(-c2csc(Cc3nnc(N4CCOCC4)n3-c3ccccc3)n2)cc1OC | inconclusive [activator, partial curve, poor fit] | – |
| CSC(=S)N/N=C/c1ccc(N(C)C)cc1 | – | inactive: 2.66% |
| OCCN(CCO)c1nc(N2CCCCC2)c2nc(N(CCO)CCO)nc(N3CCCCC3)c2n1 | – | inconclusive: 35.2% [activator] |
| CCN(CC)C(=O)Nc1ccc(OC[C@H](O)CNC(C)(C)C)c(C(C)=O)c1 | – | inactive: -1.07% |
| C=CCn1c(SCC(=O)Nc2cccnc2Cl)nnc1-c1ccc(C(C)(C)C)cc1 | inconclusive [activator, single point] | – |
| CNC(=O)/C(C#N)=C/c1ccc(-c2ccccc2[N+](=O)[O-])o1 | – | inactive: 16.5% |
| CCCCCCCSc1ncnc2[nH]ncc12 | inconclusive [activator, partial curve] | – |
| O=C(Nc1ccccc1F)c1ccc(COc2ccc(Cl)cc2Cl)o1 | inconclusive [activator, single point] | – |
| CC(=O)N1CCN(c2ccc(NCc3ccc(C)cc3)cc2)CC1 | – | inactive: 13% |
| CCn1c2ccccc2c2nc3ccccc3nc21 | inconclusive [activator, partial curve] | – |
| O=C(CSc1cccc[n+]1[O-])Nc1cc([N+](=O)[O-])ccc1Cl | – | inactive: -11.6% |
| Cc1ccc(N2C(=O)CC(c3ccsc3)C3=C2CC(C)(C)CC3=O)cc1 (centres undefined) | – | inactive: 4.75% |
| COc1ccccc1NC(=O)COc1cccc2c1CCNC2=O | inconclusive [activator, partial curve] | – |
| Clc1ccc2[nH]c3c(NCCN4CCOCC4)ncnc3c2c1 | – | inactive: 6.79% |
| CNc1nc(C)c(C(=O)OCc2ccccc2)s1 | inconclusive [activator, partial curve, poor fit] | – |
| COC(=O)c1c(NC(=O)COC(=O)c2ccc(O)cc2)sc2c1CCCCC2 | – | inactive: 18.8% |
| Nc1nc(Cl)nc2c1ncn2[C@@H]1O[C@H](CO)[C@@H](O)[C@H]1O | inconclusive [activator, partial curve, poor fit] | – |
| CSc1ccccc1NC(=O)CN(C)Cc1cccc(Cl)c1 | – | inconclusive: 53.8% [activator] |
| Cc1nn(C)cc1CNC(=O)c1cnn2c(C(F)F)cc(C3CC3)nc12 | inconclusive [activator, partial curve, poor fit] | – |
| O=S(=O)(NCc1ccc(Cl)cc1Cl)c1ccc(N2CCOCC2)nc1 | inconclusive [activator, partial curve, poor fit] | – |
| CCn1cc(C(=O)NCCCOC)c(=O)c2cc(S(=O)(=O)N3CCc4ccccc4C3)ccc21 | – | inactive: -0.0189% |
| CCn1c(SCC(=O)OC(C)C)nnc1-c1ccccc1 | – | inactive: 6.22% |
